Laboratory results published in PMC4336329 (PLoS ONE, 2015).
About 2,200 (0.71%) of roughly 310,000 compounds showed an effect of 50% or more. Effects have a minus sign here. The list shows a part of the results.

biological target: human ether-à-go-go-related gene (hERG) potassium channel (human, UniProt Q12809); assay: primary screen, population patch clamp on CHO cells stably expressing hERG
Sequence (Q12809 whole entry, looked up): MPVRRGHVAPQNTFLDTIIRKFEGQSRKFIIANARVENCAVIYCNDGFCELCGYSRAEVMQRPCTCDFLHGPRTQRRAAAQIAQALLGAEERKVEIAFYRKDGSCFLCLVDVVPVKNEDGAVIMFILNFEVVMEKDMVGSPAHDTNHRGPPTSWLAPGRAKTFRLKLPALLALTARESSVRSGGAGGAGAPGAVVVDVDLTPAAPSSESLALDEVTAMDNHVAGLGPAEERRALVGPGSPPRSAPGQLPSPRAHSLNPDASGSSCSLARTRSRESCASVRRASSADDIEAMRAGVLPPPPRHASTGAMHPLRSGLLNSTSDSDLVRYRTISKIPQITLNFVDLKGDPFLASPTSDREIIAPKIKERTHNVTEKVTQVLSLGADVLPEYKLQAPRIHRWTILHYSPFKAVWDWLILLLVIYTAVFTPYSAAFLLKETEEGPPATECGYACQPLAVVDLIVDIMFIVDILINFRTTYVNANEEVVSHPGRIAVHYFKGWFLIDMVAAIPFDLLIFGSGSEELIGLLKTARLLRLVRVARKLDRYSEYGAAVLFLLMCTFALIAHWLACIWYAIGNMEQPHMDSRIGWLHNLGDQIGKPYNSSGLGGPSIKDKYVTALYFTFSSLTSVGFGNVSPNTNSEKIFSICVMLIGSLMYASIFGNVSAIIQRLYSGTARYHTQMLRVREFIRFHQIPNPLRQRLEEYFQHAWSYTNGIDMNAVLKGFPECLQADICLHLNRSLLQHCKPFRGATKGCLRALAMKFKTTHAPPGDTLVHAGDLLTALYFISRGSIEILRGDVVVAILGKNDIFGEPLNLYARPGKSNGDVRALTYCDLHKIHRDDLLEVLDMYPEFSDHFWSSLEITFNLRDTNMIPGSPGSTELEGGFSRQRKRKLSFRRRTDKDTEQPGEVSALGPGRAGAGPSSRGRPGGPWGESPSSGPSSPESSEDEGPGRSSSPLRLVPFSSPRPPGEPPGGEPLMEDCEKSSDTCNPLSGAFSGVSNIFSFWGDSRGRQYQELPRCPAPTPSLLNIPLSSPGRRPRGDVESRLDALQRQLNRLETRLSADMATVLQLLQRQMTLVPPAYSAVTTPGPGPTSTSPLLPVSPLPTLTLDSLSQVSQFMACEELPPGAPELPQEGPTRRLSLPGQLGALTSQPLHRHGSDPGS

SMILES | hERG current change (%, negative = inhibition) at 1uM [%]
CN(C)S(=O)(=O)c1cc(NC(=O)COC(=O)CCSc2ccc(Cl)cc2)ccc1Cl | 5.36
CN(C)c1ccc(S(=O)(=O)N2CCCCC2)cc1NC(=O)C1=COCCO1 | 1.37
Cc1ccc(-n2nc(C)c3c2OC(N)=C(C#N)C3c2ccc(F)cc2)cc1 (stereo not shown) | 16.7
CC(C)c1ccc(S(=O)(=O)N2CCN(C(=O)CCNS(=O)(=O)c3ccccc3F)CC2)cc1 | 8.57
COc1ccc(-n2c(SCC(=O)Nc3ccccc3)nnc2-c2ccoc2C)cc1 | 11.7
CCN(CC)C(=O)CSc1nsc(SCC(=O)N(CC)CC)c1C#N | 12.9
COc1ccccc1-n1cnc2cc(NCc3ccco3)ccc21 | 6.42
COc1ccc(C(=O)COC(=O)Cn2cnc3c2c(=O)n(C)c(=O)n3C)c(OC)c1 | 13.2
OCC[C@H]1C[C@@H](O)[C@H](O)[C@@]2(CCCO2)O1 | 12.5
COCCCNC(=O)c1ccccc1-c1cc(C)no1 | 15.5
Cl.c1csc(CNCCCN2CCOCC2)c1 | 13.2
CCCCc1cc(=O)oc2cc(OC3CCCCC3=O)ccc12 (stereo not shown) | 22.7
COc1ccc(CNCCc2ccccc2F)c(OC)c1C.O=C(O)C(=O)O | 5.79
CC(C)N1CCc2c(sc(NC(=S)NC(=O)c3ccccc3)c2C#N)C1 | 16.8
O=C(CCC1CCCN(C(=O)c2ccc3c(c2)OCO3)C1)N1CCN(c2ccccn2)CC1 (stereo not shown) | 4.37
N/C(=N\OC(=O)Cc1ccccc1[N+](=O)[O-])c1cccc(Br)c1 | 3.85
COc1ccc(C2=NOC(C(=O)N3CCCc4ccccc43)C2)cc1 (stereo not shown) | 6.37
CSc1ccc(S(=O)(=O)N2CCC(C(=O)NCc3ccncc3)CC2)cc1 | 14
Cc1cc(NCc2ccccn2)n2nc(C)c(-c3ccc(Cl)cc3)c2n1 | 8.52
COc1ccc(/C(O)=C2/C(=O)C(=O)N(CCN3CCOCC3)C2c2cccnc2)cc1OC (stereo not shown) | 4.14
Cc1cc(C)n(-c2ccc(NC(=O)C3CCN(Cc4cc(C)c(C)o4)CC3)cc2)n1 | -5.31
Clc1cccc(Nc2ncnc3c2cnn3-c2ccccc2)c1 | 13.9

SMILES | hERG current change (%, negative = inhibition) at 1uM [%]
Cc1ccccc1Cn1nc(C)c(NC(=O)/C=C/c2cnn(C)c2)c1C | 14.6
CCCCNC(=O)[C@H]1N2C(=O)c3c(ccc(OC)c3OC)C2SC1(C)C (stereo partly shown) | 18.2
Cc1ccc(OCC(=O)NNC(=O)C2CC(=O)N(c3ccc4c(c3)OCCO4)C2)cc1 (stereo not shown) | 6.24
COc1ccc(/C=N/OC(=O)Nc2ccc(Cl)cc2)c(OC)c1 | 11.1
O=C(NCc1ccco1)c1nc2c(nnn2Cc2cccc(Cl)c2)c(=O)[nH]1 | 10.9
CCOc1ccc(Oc2ccc(S(=O)(=O)N3CCOCC3)cc2NC(=O)CCNC(C)=O)cc1 | 4.54
CCCCn1c(N)c(N(CC(C)C)C(=O)COC(=O)C2(c3ccccc3)CC2)c(=O)[nH]c1=O | 17.3
COc1ccc(-n2sc3ccc(F)cc3c2=O)cc1 | -0.925
C[C@@H](OC(=O)N(C)Cc1ccccc1)[C@H]1O[C@]2(C)CCCC[C@H]1O2 | 12.2
CCN1CCN(c2ccc(S(=O)(=O)N3CCOCC3)cc2NC(=O)c2ccc(F)cc2Cl)CC1 | -0.421
Cc1ccc(OCc2ccc(C(=O)Nc3cc(C)on3)o2)c([N+](=O)[O-])c1 | 0.863
CCOc1ncccc1C(=O)Nc1ccc2nc(C)sc2c1 | 6.88
CCCN1C2CCCC1CC(NC(=O)Nc1cccc(C(C)=O)c1)C2 (stereo not shown) | 2.64
COCCN1CC(CNC(=O)c2cc(COc3ccccc3SC)on2)CC1=O (stereo not shown) | 2.39
COc1ccc(/C=C/C(=O)Nc2ccc(N3CCOCC3)cc2)cc1 | 13.7
CC12CCC(=O)N1C(C(=O)NNC(=O)c1ccc(Br)cc1)CS2 (stereo not shown) | 4.71
COc1cccc(CCc2nnc(N)s2)c1 | 13.2
CC(NC(=O)c1ccc(Cl)cc1)C1CC2CCC1C2 (stereo not shown) | 9.41
C/C(CCc1ccco1)=N/NC(=O)CCC(=O)Nc1cccc(Cl)c1 | 14.2
Cc1ccc(NC(=O)c2cc(S(=O)(=O)N3CCOCC3)cn2C)cc1Cl | 16.8
CC1=NC(C)(C)Cc2cc(C)c(C)cc21.Cl | 5.37
